According to paper PMC6919601, “Identification of Plasmodium dipeptidyl aminopeptidase allosteric inhibitors by high throughput screening” (PLoS ONE, 2019):
Several values for one entry are separate records, joined by “and”; a condition that tells them apart may be missing. Equal values may be shown once. In all, about 110,000 compounds went through this assay and about 230 (0.21%) showed an effect of 50% or more. The list shows a part of the results.

target: DPAP1 (Plasmodium falciparum, UniProt Q8IIJ9); assay: primary screen, percent inhibition; read by cleavage of a fluorogenic dipeptide substrate; higher = more effect of the substance; design: species or system P. falciparum D10 trophozoite lysates; single well
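Note: 30 min substrate incubation versus DMSO and 10 µM JCP410 controls.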

DPAP1, sequence (Q8IIJ9 whole entry, looked up): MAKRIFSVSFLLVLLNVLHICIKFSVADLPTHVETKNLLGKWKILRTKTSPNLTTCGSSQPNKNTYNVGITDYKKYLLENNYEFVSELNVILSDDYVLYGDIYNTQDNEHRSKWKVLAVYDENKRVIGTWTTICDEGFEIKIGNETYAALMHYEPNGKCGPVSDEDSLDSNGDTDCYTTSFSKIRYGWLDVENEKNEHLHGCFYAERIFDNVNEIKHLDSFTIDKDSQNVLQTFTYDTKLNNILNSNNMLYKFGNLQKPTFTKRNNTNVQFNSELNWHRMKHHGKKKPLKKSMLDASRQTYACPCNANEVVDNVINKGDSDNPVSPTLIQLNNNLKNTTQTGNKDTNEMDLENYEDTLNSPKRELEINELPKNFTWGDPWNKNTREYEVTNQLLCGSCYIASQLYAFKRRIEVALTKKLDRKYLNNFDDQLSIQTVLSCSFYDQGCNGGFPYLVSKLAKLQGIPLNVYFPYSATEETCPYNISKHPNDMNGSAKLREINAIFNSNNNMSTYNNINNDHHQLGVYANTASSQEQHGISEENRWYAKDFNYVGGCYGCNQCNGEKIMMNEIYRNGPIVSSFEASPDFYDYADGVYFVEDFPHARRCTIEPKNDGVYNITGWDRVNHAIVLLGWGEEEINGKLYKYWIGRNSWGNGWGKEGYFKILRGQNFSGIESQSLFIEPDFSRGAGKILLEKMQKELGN

Row | SMILES | % Inhibition @ 10 uM
1 | COc1cc2c(C(=O)N3CCOCC3)c(C)n(-c3ccccc3)c2cc1Br | 4.08%
2 | C=CCN1C(=O)NC(=O)/C(=C/c2ccc(O)c(OC)c2)C1=O | -4.84%
3 | O=C(Nc1nc(-c2ccc(Br)cc2)cs1)c1c(O)nc2ccccc2c1O | -3.89%
4 | COc1ccc(CN2CCN(Cc3ccc(Cl)cc3)CC2)c(OC)c1OC | -6.59%
5 | CCn1cc(C(=O)O)c(=O)c2cc(F)c(N(C)C)c(F)c21 | -4.31%
6 | COc1cc(-c2nc(C)c(C(C)=O)n2O)ccc1OCC(=O)Nc1cccc(C(F)(F)F)c1 | -9.55%
7 | Cn1c(=O)c2c(ncn2Cc2ccccc2Cl)n(C)c1=O | -8.4%
8 | Cc1ccc(C(=O)NCC2OCCc3ccccc32)cc1 (stereo not drawn) | -0.958%
9 | O=C(Nc1ccc(N2CCOCC2)cc1)c1cccc2ccccc12 | 1.96%
10 | CN(Cc1ccccc1)C(=O)C(c1ccccc1)N1Cc2ccccc2C1=O (stereo not drawn) | 2.71%
11 | CN1c2ccccc2N(C)C1c1ccc(F)cc1 | 5.24%
12 | Cc1cccn2c(=O)c3cc(C#N)c(=O)n(Cc4ccc5c(c4)OCO5)c3nc12 | 1.12%
13 | CCN(Cc1ccccc1)C(=O)c1cc2c(s1)-c1ccccc1OC2 | -1.37%
14 | COc1cc(C2C3=C(O)CCCC3=Nc3c2c(=O)n(C)c(=O)n3C)ccc1OCc1ccccc1 (stereo not drawn) | 1.96%
15 | CC1CC(C)CN(C(=O)c2cccnc2Cl)C1 (stereo not drawn) | -3.49%
16 | COc1ccccc1-c1nc(S(=O)(=O)c2ccccc2)c(N2CCCCC2)o1 | 2.49%
17 | CCOc1ccc(C(=O)C2=C(O)C(=O)N(c3nnc(C)s3)C2c2ccccc2)cc1 (stereo not drawn) | 3.8%
18 | COc1cc2c(cc1OC)CN(Cc1cc(OC)c(O)c(OC)c1)CC2 | 6.18%
19 | NC1=NC(=O)/C(=C\c2ccc3c(c2)OCO3)S1 | 11.8%
20 | CCN1C(=O)N/C(=C/c2cc(OC)c(OC)cc2OC)C1=O | -2.78%
21 | COc1ccc(CN2CCN(C(=O)c3cccs3)CC2)cc1OC | -11.6%
22 | CCN1C(=O)S/C(=C/c2cn(CC(=O)Nc3ccc(F)cc3)c3ccccc23)C1=O | -0.891%
23 | COc1cc2cc(C(=O)O)[nH]c2c(OC)c1OC | -2.79%
24 | CC(c1ccccc1)N1C(=O)c2ccccc2C1O (stereo not drawn) | -4.74%
25 | COc1ccc(-n2nc3c(c2NC(=O)/C=C\c2ccccc2)CS(=O)(=O)C3)cc1 | 13.1%

Row | SMILES | % Inhibition @ 10 uM
26 | CCOc1ccc(N2C(=O)CC(NCC34CC5CC(CC(C5)C3)C4)C2=O)cc1 (stereo not drawn) | 6.42%
27 | O=c1c2ccccc2n2c(-c3cc(Br)cs3)nnc2n1Cc1ccccc1 | -7.29%
28 | COc1ccc(-n2c3c(c(=O)[nH]c2=O)C(NC(=O)c2ccc(F)cc2)(C(F)(F)F)C(=O)N3)cc1 (stereo not drawn) | 3.57%
29 | Cc1cccc(C)c1-n1c(C)cc(/C=C2/C(=N)N3C(=NC2=O)SN=C3S(C)(=O)=O)c1C | -3.39%
30 | CC[C@H](NC(=O)[C@H](Cc1c(F)cccc1F)/N=C(\NCC(F)(F)F)c1ccc(-c2ccccc2Cl)cc1)C(=O)c1nc2ccccc2o1 | -4.82%
31 | CC(C)(C)C1CCc2c(sc3nnnc(O)c23)C1 (stereo not drawn) | -1.16%
32 | O=C(CSC1CC(=O)N(c2cccc(Cl)c2)C1=O)Nc1ccc(F)cc1 (stereo not drawn) | 2.13%
33 | COc1ccc(Br)cc1CN1CCCCCC1 | -7.33%
34 | CC(C)CNc1oc(/C=C/c2ccc(F)cc2)nc1C#N | -0.808%
35 | CCc1ccc(/C=C/C2=CC(C)(C)NC(S)=N2)cc1 | -1.58%
36 | CCCCNC(=O)c1cc2c(O)nc3ccc(C)cc3c2s1 | 2.85%
37 | O=S(=O)(c1ccc(OC(F)(F)F)cc1)N1CCNCC1 | -0.671%
38 | CC1CCC2C(=O)N(c3ccc(O)cc3)C(=O)C2C1 (stereo not drawn) | -2.53%
39 | CC(C)C[C@H](NC(=O)c1ccc(N2CCN(C)CC2)nc1)C(=O)NCC#N | -2.35%
40 | COc1ccccc1-c1nc2s/c(=C\c3cccs3)c(=O)n2n1 | 2.24%
41 | O=C(CCn1cccn1)NCc1ccc2c(c1)OCO2 | -1.56%
42 | COCCNC(=O)Cn1ncc2c3ccccc3n(Cc3ccccc3)c2c1=O | 3.4%
43 | CCOC(=O)N1CCC2(CC1)OC(=O)C(C)=C2C(=O)NCc1ccccc1OCC | -7.94%
44 | CCc1nc(C)ccc1OCC(=O)NCCCN(C)C | 4.01%
45 | COc1ccc(Cn2nnc(C(=O)NCCc3ccccc3)c2N)cc1Br | -4.1%
46 | CC(=O)Nc1ccc(S(=O)(=O)Nc2ccccc2C(=O)NCC(C)C)cc1 | 0.726% and -7.32%
47 | c1ccc(CN2CCN(c3nn4nnnc4c4ccccc34)CC2)cc1 | -3.75%
48 | Cc1nnc2sc(NC(=O)c3cccc(F)c3)nn12 | -4.69%
49 | CCOc1cccc(C=O)c1OCc1cc(=O)n2ccccc2n1 | -9.35%
50 | CN1CCC(N(C)C(=S)NCCc2ccccc2)CC1 | -2.5%

Row | SMILES | % Inhibition @ 10 uM
51 | Cc1ccc(S(=O)(=O)/C(C#N)=C/c2c(Oc3ccccc3)nc3ccccn3c2=O)cc1 | 7.65%
52 | CC(C)(C)C1CCc2c(sc(NC(=O)c3ccccc3F)c2C(=O)NCCO)C1 (stereo not drawn) | 2.03%
53 | O=C(NCCc1ccccc1)c1ccccc1NC(=O)C1CCCCC1C(=O)O (stereo not drawn) | -0.519%
54 | CCc1ccc2nc3nc(C)cc(C)c3c(N)c2c1 | -5.27%
55 | CN1CCN(c2nc(-c3ccc(C(=O)NC(Cc4cc(Cl)cc(Cl)c4)C(=O)NCC#N)cc3)cs2)CC1 (stereo not drawn) | 17%
56 | COc1ccc(-c2csc(/C(C#N)=C/c3cccs3)n2)cc1 | 3.74%
57 | O=C(NCc1ccc(F)cc1)c1cccnc1C(=O)O | 2.34%
58 | COc1cccc(CCN2N=C(C)CC2=O)c1OC | -0.999%
59 | O=C1CNC(=O)/C1=C\Nc1ccc(C2CCCCC2)cc1 | -1.06%
60 | Cc1c(C(=O)NCc2cccc(C(F)(F)F)c2)cnn1C | -8.75%
61 | COc1cccc2c1c(=O)c1ccccc1n2C | 2.75%
62 | CCn1c(NCc2ccc(O)cc2)nc2ccccc21 | 1.64%
63 | Cc1ccc(-n2ncc(C(=O)N3CCCC3)c2C2CCN(C(=O)OC(C)(C)C)CC2)c(C)c1 | 0.0065%
64 | CC(=O)Nc1ccc2c(c1)C(=O)Cc1ccccc1S2 | 4.27%
65 | Fc1ccccc1N1CCN(Cc2c(Cl)cccc2Cl)CC1 | 4.28%
66 | COc1ccc(C(=O)C2=C(O)C(=O)N(CCCN3CCOCC3)C2c2cccnc2)cc1C (stereo not drawn) | 1.67%
67 | CC1CCN(CCCNC(=O)c2cc3ccc4cccnc4c3[nH]2)CC1 | -5.99%
68 | CCOC(=O)C1=C(C)N(C)C(=O)NC1c1ccc(Cl)c(Cl)c1 (stereo not drawn) | -1.59%
69 | CCOc1cc(C2C(C#N)=C(N)Oc3[nH]nc(C)c32)c(Br)cc1OCc1ccccc1 (stereo not drawn) | 5.48%
70 | Nc1cc(C(F)(F)F)ccc1C(=O)O | -2.55%
71 | CCOC(=O)C1=C(CN2CCN(C(C)CC)CC2)NC(=O)NC1c1ccc(OC)cc1 (stereo not drawn) | -1.31%
72 | Cc1ccccc1CSc1nc(=O)c2c(n1C)NC(=O)CC2c1cccc(O)c1 (stereo not drawn) | 18.5%
73 | COc1ccc(CCNc2oc(COc3ccccc3C)nc2C#N)cc1 | -7.55%
74 | N#CC1=C(N)Oc2c(c(=O)oc3ccccc23)C1c1cccs1 (stereo not drawn) | -1.98%
75 | CCc1ccccc1NC1=C(Cl)C(=O)N(c2ccccc2)C1=O | -1.07%

Row | SMILES | % Inhibition @ 10 uM
76 | COc1cc(S(=O)(=O)N2CCN(Cc3ccc(Cl)cc3)CC2)ccc1-n1cnnn1 | -6.56%
77 | O/N=C1\CCCc2nnc3c(c21)CCCC3 | -3.82%
78 | CC(C)CC(=O)N1c2ccccc2N=C2CC(C)(C)CC(O)=C2C1c1cccs1 (stereo not drawn) | -1.08%
79 | CCOc1ccc(C(CC(=O)O)NC(=O)c2ccc(OC)c(Br)c2)cc1OC (stereo not drawn) | -4.59%
80 | CC(C)OCCCNC(=O)c1cc(-c2ccc(Br)cc2)[nH]n1 | 6.89%
81 | CCn1ccnc1C(O)(c1ccccc1)c1ccc(C)cc1 (stereo not drawn) | 4.67%
82 | OC(COC1C2CC3CC(C2)CC1C3)CN1CCCCC1 (stereo not drawn) | -0.0369%
83 | Cc1ccc(-c2nnc3n(CCc4ccccc4)c(=O)c4ccccc4n23)s1 | -5.37%
84 | O=C(COc1cc(Cl)c(Cl)cc1Cl)Nc1ccccc1 | 0.528%
85 | CS(=O)(=O)N(CC(=O)Nc1cc(Cl)c(Cl)cc1Cl)Cc1ccccc1 | -5.54%
86 | CCCOc1ccc2c(=O)c(-c3ccccc3)coc2c1C | 1.02%
87 | Clc1ccc2c(c1)c1c3c(nccn32)CCC1 | -0.197%
88 | NC(=O)c1nn2c(C(F)(F)F)cc(-c3ccccc3)nc2c1Cl | 6.53%
89 | CC(=O)c1ccc(NC(=O)C(C)Oc2ccccc2C)cc1 (stereo not drawn) | -5.92%
90 | Cn1c(=O)c2c(-c3ccc(Cl)cc3)n(CC3CCCO3)cc2n(C)c1=O (stereo not drawn) | 0.366%
91 | CC(=O)c1sc(N2C(=O)C(O)=C(C(=O)c3cc4ccccc4o3)C2c2cccs2)nc1C (stereo not drawn) | 6.42%
92 | CC(C)C[C@H](NC(=O)OCc1ccccc1)C(=O)NC(C#N)c1ccsc1 (stereo partly drawn) | 7.39%
93 | CCCCOC(=O)Nc1nc2ccc(S(C)(=O)=O)cc2s1 | -1.47%
94 | Clc1ccc2c[nH]nc2c1 | -7.22%
95 | COCCNC(=O)CS(=O)Cc1nc(-c2ccc(Cl)cc2)oc1C (stereo not drawn) | -1.05%
96 | CC1(C)CC(=O)CC(c2ccccc2)(c2ccccc2)N1 | -3.74%
97 | Cc1ccc(OCC(O)CNS(=O)(=O)c2ccccc2C(=O)N2CCCCC2)cc1 (stereo not drawn) | 0.222%
98 | N#CC1=C(N)Oc2[nH]nc(-c3ccccc3Cl)c2C1c1ccc2c(c1)OCO2 (stereo not drawn) | -0.68%
99 | CC(C)Cn1cc(NC(=O)N(Cc2ccco2)C2CCN(C)CC2)c2ccccc2c1=O | -4.78%
